According to PubChem BioAssay AID1030 (National Center for Advancing Translational Sciences (NCATS), 2008):
The campaign covered roughly 220,000 compounds. About 16,000 (7.3%) were called active. Inconclusive results, whose numbers are uncertain, are shown with a selection of clear calls. Calls follow the shape of the dose curve; as a rule, active = well fitted inhibition curve with a large enough effect (not every such curve was filed as active); inconclusive = small, poorly fitted or top-dose-only effect, or another doubt; inactive = no such curve, though single readings can be large or run the other way. Potencies of inconclusive entries are left out as doubtful fits.
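For activity, negative = inhibition in this document: plate controls were no enzyme wells and a reference inhibitor.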
Potency is read from the fitted curve at half-maximal effect; tags tell the direction and shape of the fitted curve.

These compounds were tested against Aldehyde dehydrogenase 1A1 (Homo sapiens) (UniProt P00352) (assay: qHTS Assay for Inhibitors of Aldehyde Dehydrogenase 1 (ALDH1A1)). Settings: Purified ALDH1A1, NADH fluorescence, propionaldehyde substrate; series mostly up to 75.3 µM.
Sequence of UniProt P00352 (P00352 whole entry, looked up): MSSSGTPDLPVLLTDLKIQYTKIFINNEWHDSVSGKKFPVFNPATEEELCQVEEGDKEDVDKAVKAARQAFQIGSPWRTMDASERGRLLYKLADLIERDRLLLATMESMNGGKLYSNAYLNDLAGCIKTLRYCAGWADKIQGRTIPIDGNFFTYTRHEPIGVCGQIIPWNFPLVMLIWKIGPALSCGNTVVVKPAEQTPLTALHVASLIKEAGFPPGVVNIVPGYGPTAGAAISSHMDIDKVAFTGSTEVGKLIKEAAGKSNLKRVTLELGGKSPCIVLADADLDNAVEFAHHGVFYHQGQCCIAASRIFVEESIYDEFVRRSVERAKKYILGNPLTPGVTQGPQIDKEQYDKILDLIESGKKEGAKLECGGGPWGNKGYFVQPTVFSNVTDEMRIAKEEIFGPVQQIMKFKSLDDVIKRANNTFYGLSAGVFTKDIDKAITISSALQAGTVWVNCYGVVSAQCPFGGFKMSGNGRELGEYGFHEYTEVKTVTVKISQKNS
For COC(=O)c1ccc(COc2ccc(C=O)cc2OC)o1, the Potency was inconclusive [inhibitor, partial curve].
In the case of CNS(=O)(=O)c1cccc(C(=O)OCC(=O)Nc2ccc(N3CCCCC3)cc2)c1, the Potency is reported as inconclusive [inhibitor, partial curve].
CC(C)(C)c1nnc2sc(SCC(=O)c3ccc(Cl)cc3)nn2c1=O was tested, and the Potency was active: 4.47 µM.
In the case of C(=N\Nc1ncnc2sc3c(c12)CCC3)/c1ccncc1, the Potency is reported as inconclusive [inhibitor, single point].
With CCOc1ccc(N2C(=O)CC(Sc3nc(-c4cccs4)cc(C(F)(F)F)c3C#N)C2=O)cc1 (stereo not drawn) the Potency was inconclusive [inhibitor, single point].
CCCCC[C@H](O)/C=C/C=C\CCCCCCCC(=O)O was tested, and the Potency was “inactive”.
O=c1c2ccccc2nnn1CCO was tested, and the Potency was “inactive”.
With CCN(CC)CCN1C(=O)C(O)=C(C(C)=O)C1c1ccc(OC)c(OC)c1 (stereo not drawn) the Potency was active: 17.8 µM.
For O=C(COc1ccc2oc(-c3ccco3)cc(=O)c2c1)N1CCCCC1, the Potency was inconclusive [inhibitor, partial curve].
In the case of COc1ccccc1N1CCN(CCCC(=O)c2ccc(F)cc2)CC1, the Potency is reported as “inactive”.
For Cc1cc(C)n2c(Nc3ccc4c(c3)OCCO4)c(-c3ccc(C)o3)nc2n1, the Potency was “inactive”.
With O=C(Cn1nc(CNc2ccc(Cl)cc2)[n+]2c1CCCCC2)c1ccc(Br)cc1 the Potency was inconclusive [inhibitor, single point].
For Cc1ccc(NC(=O)c2c(O)c3ccccc3n(C)c2=O)nc1, the Potency was inconclusive [inhibitor, single point].
With CC1(C)NC(=O)N(CCSc2ccc(Cl)cc2)C1=O the Potency was inconclusive [inhibitor, partial curve].
With Cc1cc(C)n(C(=O)CNC(=O)CCc2ccccc2)n1 the Potency was “inactive”.
For Cc1ccc(-c2nn(CCC(=O)O)cc2/C=C\C(=O)c2ccc(Br)cc2)cc1, the Potency was inconclusive [inhibitor, single point].
For CCC(=O)N(CCC(c1ccco1)c1ccccc1OC)Cc1cccs1 (stereo not drawn), the Potency was inconclusive [inhibitor, single point].
With CCn1c(C)nc2cc(C(=O)NNC(=O)CCC3CCCC3)ccc21 the Potency was “inactive”.
In the case of COc1cc(NC(=S)Nc2ccccn2)cc(OC)c1, the Potency is reported as “inactive”.
With O=C1C2C3C=CC(C3)C2C(=O)N1/N=C/c1cc(Br)cc([N+](=O)[O-])c1O (stereo not drawn) the Potency was inconclusive [inhibitor, single point].
In the case of CCOCCCNC(=S)N(Cc1ccccc1)Cc1nc2ccccc2c(=O)[nH]1, the Potency is reported as inconclusive [inhibitor, partial curve].
For O=C(NN1C(=O)C2C3c4ccccc4C(c4ccccc43)C2C1=O)C1CC1 (stereo not drawn), the Potency was “inactive”.
With Cn1nnc(NC(=S)NC(=O)Cc2ccccc2)n1 the Potency was inconclusive [inhibitor, single point].
For COC(=O)Cc1cc(=O)[nH]c(Nc2nc3ccccc3o2)n1, the Potency was “inactive”.
For O=C(Nc1ccccc1F)c1coc(=O)c(Br)c1, the Potency was inconclusive [inhibitor, partial curve].
With CC(C)C[C@@H](CC(=O)N[C@@H](CCCN)CC(=O)N[C@@H]1CCCC[C@H]1C(=O)N[C@H](CC(=O)N[C@@H](CCC(=O)O)CC(=O)O)Cc1ccccc1)NC(=O)[C@@H]1CNCC[C@H]1N the Potency was “inactive”.
Cc1cc(C)n(CC(=O)n2c(C)c(C)c3ccccc32)n1 was tested, and the Potency was “inactive”.
Cc1[nH]nc(SCC(=O)N2CCCC2)c1[N+](=O)[O-] was tested, and the Potency was “inactive”.
COc1ccc(C(=O)CSc2nnc(CNc3ccc(C)cc3C)n2Cc2ccco2)cc1 was tested, and the Potency was active: 7.08 µM.
For CC(=O)C(=Cc1ccc(C(=O)O)cc1)C(C)=O, the Potency was inconclusive [inhibitor, single point].
Nc1nc(SCC(=O)c2ccc(F)cc2)n[nH]1 was tested, and the Potency was “inactive”.
With O=S(=O)(Nc1cc(Sc2ncn[nH]2)c(O)c2ccccc12)c1ccccc1 the Potency was active: 14.1 µM.
In the case of Cc1ccc(S(=O)(=O)N(C)C)cc1NC(=O)c1c(-c2c(F)cccc2Cl)noc1C, the Potency is reported as “inactive”.
With O=C(NCc1ccco1)C1CC(c2c(Cl)cccc2Cl)=NO1 (stereo not drawn) the Potency was “inactive”.
O=C(Cc1ccccc1)N/N=C/c1cccn1-c1ccc([N+](=O)[O-])cc1 was tested, and the Potency was inconclusive [inhibitor, partial curve].
With C[C@@H]1C=C(C(=O)O)O[C@H](OCc2ccc(CO)cc2)C1 the Potency was inconclusive [inhibitor, single point].
For CN(C)CCc1cc2c(c3c1ccc1ccccc13)OCO2, the Potency was inconclusive [inhibitor, single point].
For Oc1ccc(Cl)cc1C(C#Cc1ccccc1)N1CCOCC1 (stereo not drawn), the Potency was inconclusive [inhibitor, single point].
In the case of Cc1ccc(C)c(N2CCN(C(=O)c3ccc4nc(-c5ccco5)c(-c5ccco5)nc4c3)CC2)c1, the Potency is reported as inconclusive [inhibitor, partial curve].
O=C(c1ccc(F)cc1)N1CCC(n2nnc3ccccc32)CC1 was tested, and the Potency was “inactive”.
In the case of COc1ccccc1N1CCN(/N=C/c2cccc(O)c2)CC1, the Potency is reported as inconclusive [inhibitor, single point].
For COc1cc(OC)cc(C(=O)NCCSC2CCCCC2)c1, the Potency was inconclusive [inhibitor, partial curve].
In the case of Cc1ccc(-c2nc3ncccn3c2NC2CCCC2)o1, the Potency is reported as inconclusive [inhibitor, single point].
Cc1ccc(Cn2nnnc2CN2CCC(c3nc4ccc(Cl)cc4[nH]3)CC2)cc1 was tested, and the Potency was inconclusive [inhibitor, single point].
With Cn1c(=O)c([N+](=O)[O-])c(NCCc2ccccc2)c2ccccc21 the Potency was “inactive”.
For CCCCNC(=O)C1CCN(S(=O)(=O)c2cnc[nH]2)CC1, the Potency was “inactive”.
In the case of COc1ccc([N+](=O)[O-])cc1N(CC(O)CN(CC(C)C)CC(C)C)S(=O)(=O)c1ccccc1 (stereo not drawn), the Potency is reported as inconclusive [inhibitor, partial curve].
Cc1ccc(N2CC(C(=O)Nc3ccc(S(=O)(=O)N4CCOCC4)cc3)CC2=O)cc1 (stereo not drawn) was tested, and the Potency was inconclusive [inhibitor, single point].
With O=C(NC(=S)NC1CCSC1=O)c1ccccc1F (stereo not drawn) the Potency was inconclusive [inhibitor, single point].
O=[N+]([O-])c1ccccc1S(=O)(=O)n1nnc2ccccc21 was tested, and the Potency was “inactive”.
For O=C(Nc1ccc(-c2nc3ccccc3s2)c(OC(=O)c2ccccc2)c1)c1ccccc1, the Potency was inconclusive [inhibitor, single point].
For COc1ccccc1N1CCN(C2CCN(C(=O)COc3cccc(C)c3)CC2)CC1, the Potency was “inactive”.
In the case of O=C1CC(c2cccc(Br)c2)C2=C(CCCC2=O)N1 (stereo not drawn), the Potency is reported as inconclusive [inhibitor, partial curve].
For Cc1ccnc(NS(=O)(=O)c2ccc(N=CC3=C(O)CC(C)(C)CC3=O)cc2)n1, the Potency was inconclusive [inhibitor, single point].
For CCOC(=O)N1CCC(N2CCN(S(=O)(=O)c3ccc(OC)cc3)CC2)CC1, the Potency was inconclusive [inhibitor, single point].
For CCC1(C)NC(=O)N(CC(=O)Nc2sc3c(c2C(N)=O)CCC3)C1=O (stereo not drawn), the Potency was inconclusive [inhibitor, single point].
With CC(C)Cc1nnc(NS(=O)(=O)Cc2ccccc2)s1 the Potency was active: 12.6 µM.
For O=C1c2cc([N+](=O)[O-])ccc2-c2ccc3c4ccc5c6c(ccc(c7ccc1c2c73)c64)C(=O)c1cc([N+](=O)[O-])ccc1-5, the activity, negative = inhibition was inactive: -8.31% [at 13.5 µM].
For COc1ccc(OC)c(S(=O)(=O)N2CCC(C(=O)NCc3ccccc3)CC2)c1, the Potency was inconclusive [inhibitor, single point].
With C=C(C)CSc1nnc(-c2cccc(Cl)c2)n1N the Potency was inconclusive [inhibitor, single point].
For COc1ccc(C(=O)Nc2ccc(S(=O)(=O)N3CCCC3)cc2)c(OC)c1, the Potency was inconclusive [inhibitor, single point].
CC(C)(C)[C@H]1C=C(C(N)=O)O[C@@H](OCc2ccc(CO)cc2)C1 was tested, and the Potency was “inactive”.
Cc1cc(C)cc(NC(=O)OCCN2CCN(Cc3ccccc3)CCC2=O)c1 was tested, and the Potency was “inactive”.
CCCc1[nH]n(-c2ccc([N+](=O)[O-])cc2)c(=O)c1C=NCCCn1ccnc1 was tested, and the Potency was “inactive”.
COC(=O)c1cccc(NC(=S)Nc2cc(Cl)ccc2OC)c1 was tested, and the Potency was inconclusive [inhibitor, single point].
For COc1ccccc1CN1CCC2(CC1)CCN(C(=O)c1cccc(F)c1)CC2, the Potency was “inactive”.
With O=C(CSc1nc2cc(Cl)ccc2s1)c1ccco1 the Potency was inconclusive [inhibitor, partial curve].
In the case of NC(=O)c1cc(C(=O)c2cccc(Cl)c2Cl)c[nH]1, the Potency is reported as inconclusive [inhibitor, partial curve].
With c1cnc(SCCOc2cccc3ccccc23)nc1 the Potency was inconclusive [inhibitor, single point].
CCOC(=O)N/N=C/c1cccnc1 was tested, and the Potency was “inactive”.
COc1cccc(NC(=O)CC2S/C(=N\S(=O)(=O)c3ccccc3)N(c3ccccc3)C2=O)c1 (stereo not drawn) was tested, and the Potency was active: 20 µM.
In the case of N#CCCN1CCN(C(CNS(=O)(=O)c2ccc(Cl)cc2)c2ccccc2)CC1 (stereo not drawn), the Potency is reported as inconclusive [inhibitor, single point].
In the case of CSc1ccc(/C=C(/NC(=O)c2ccc(C)cc2)C(=O)Nc2cccc(C)c2)cc1, the Potency is reported as “inactive”.
